Measurements from PMC7819943, “Rice protein-binding microarrays: a tool to detect cis-acting elements near promoter regions in rice”.
This is one part of the list.

Target: T1, OsWOX13 (Oryza sativa, UniProt Q5QMM3 1-267)
T1 sequence: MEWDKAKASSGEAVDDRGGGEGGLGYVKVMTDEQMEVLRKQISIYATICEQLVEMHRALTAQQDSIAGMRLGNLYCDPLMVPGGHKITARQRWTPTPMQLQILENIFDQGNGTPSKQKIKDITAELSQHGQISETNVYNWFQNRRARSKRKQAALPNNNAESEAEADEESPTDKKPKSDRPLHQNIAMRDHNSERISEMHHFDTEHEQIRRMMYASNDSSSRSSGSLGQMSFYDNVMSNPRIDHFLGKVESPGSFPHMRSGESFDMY
Experiment: protein-binding microarray (RPBM); PBS, 2% BSA, 51.3 ng/ul salmon testes DNA, 50 uM zinc acetate, 200 nM TF, 25 C, 1 h; high values mean tight binding
Details: protein: recombinant; tags: N-terminal polyhistidine and DsRed monomer fusion (pET32a); label: CyDye5-dUTP incorporated in the synthesized complementary strand; 3' TTTTT single-stranded linker to array surface; dsDNA, one strand shown
Summary of the method: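 Transcription factors were made in E. coli BL21-CodonPlus as N-terminal fusions to a polyhistidine tag and DsRed, then purified on Ni–NTA. After primer extension with Cy5-dUTP and blocking with 2% BSA, a custom Agilent array was exposed for 1 h at 25 °C to 200 nM protein in PBS, 2% BSA, salmon testes DNA and 50 µM zinc acetate. Washed arrays were scanned on an Axon 4000B, and the binding signal is per-feature fluorescence intensity in arbitrary units.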

Sequence | binding signal
CACAAACATACATATTTAAATTTAACTTATAAAAGTAGAACGGAGTCACCTAGTGCAG | 4220 fluorescence intensity (a.u.)
TTTATTCAATCATCACTGCAATAAGTTACTTTCTCTATCCCGGAGTCACCTAGTGCAG | 17000 fluorescence intensity (a.u.)
GCCATCCAATCAGTACAGTTGCGTCAAGCATTCAACTTCTCGGAGTCACCTAGTGCAG | 5100 fluorescence intensity (a.u.)
ATTAGGTGTTTCCAGTTAATTAAAGTCATGTAGTACGGATCGGAGTCACCTAGTGCAG | 3680 fluorescence intensity (a.u.)
AAATAACGAGCAGACATAATTAGACATACTTGCCCCACCGCGGAGTCACCTAGTGCAG | 11200 fluorescence intensity (a.u.)
TCTTACCAAATTTTGACAGGATTTCTTATATATCTACCAACGGAGTCACCTAGTGCAG | 6330 fluorescence intensity (a.u.)
TTGGAATTGGAATTATATATGACATATGGATGTATGAAACCGGAGTCACCTAGTGCAG | 9130 fluorescence intensity (a.u.)
AGTGTTGATTTAATGTTAAATATTATAGTTAACACTTAAGCGGAGTCACCTAGTGCAG | 28200 fluorescence intensity (a.u.)
TAATTAATCTGTTATTAGCAAATATTTACTGTAGCACCACCGGAGTCACCTAGTGCAG | 3560 fluorescence intensity (a.u.)
CATCAGATATTTAACACTAATTAGAAATATTAAACATAGTCGGAGTCACCTAGTGCAG | 9680 fluorescence intensity (a.u.)
CATATATGATTAGCGAAGGCTTGGAGTGTGAATCAAACACCGGAGTCACCTAGTGCAG | 20900 fluorescence intensity (a.u.)
GTAACAGATTACATGAGGATTATGCGTCTGCATAGGTGGACGGAGTCACCTAGTGCAG | 9250 fluorescence intensity (a.u.)
ACTCAATTTACAGACTTTGATTTGCTTGCTGAATTCCTCTCGGAGTCACCTAGTGCAG | 33500 fluorescence intensity (a.u.)
GGTGCCAATCATCTCCGGCGGCACGGCACTGCAGATAGCGCGGAGTCACCTAGTGCAG | 11100 fluorescence intensity (a.u.)
ATATGATAATAATTATTTAAAGAAATAAATTTATTTTGGACGGAGTCACCTAGTGCAG | 28700 fluorescence intensity (a.u.)
ATATGAATAGAAATTTTGCATGATTGCAATCCTACAGATTCGGAGTCACCTAGTGCAG | 15300 fluorescence intensity (a.u.)
CCCCTATGATAGATCCGCTGCTGATTCGGCTGGGAATAAGCGGAGTCACCTAGTGCAG | 4780 fluorescence intensity (a.u.)
ATTTTGACTGGTTGGCTGGTTGCGATCAAGTTGTGAGATCCGGAGTCACCTAGTGCAG | 15400 fluorescence intensity (a.u.)
CATCTATGATTGCCTTATGAACGTACATACATACGCACACCGGAGTCACCTAGTGCAG | 36600 fluorescence intensity (a.u.)
TCACAATATAATTAAGATTGATTATCCCGCCGATTCATCACGGAGTCACCTAGTGCAG | 37800 fluorescence intensity (a.u.)
TGGTTCGGGCAGGGAGATAATTAGAGAGGAAGAGGATAATCGGAGTCACCTAGTGCAG | 3600 fluorescence intensity (a.u.)
TTACGTAATTTTAAACCGTAAGATTTATTTCCTAATTCGTCGGAGTCACCTAGTGCAG | 11500 fluorescence intensity (a.u.)
GGGATCCAATCAATTTCAATTGAATTGTAGAAGTAGTGGTCGGAGTCACCTAGTGCAG | 30700 fluorescence intensity (a.u.)
TAAACTGATCATAAATTCCACTCAAATCAACAGCATTTGACGGAGTCACCTAGTGCAG | 8880 fluorescence intensity (a.u.)
CATTTTAAATTGCGATAGCAAGATCACAAATTTCTCAGCGCGGAGTCACCTAGTGCAG | 7180 fluorescence intensity (a.u.)
CTTGATGGAACAACCACGTTATCTCATGGGTGAATCCATTCGGAGTCACCTAGTGCAG | 22600 fluorescence intensity (a.u.)
ATAAAACAAATTACAAAATCCGCCTGTAAACCGCGAGACGCGGAGTCACCTAGTGCAG | 3460 fluorescence intensity (a.u.)

Sequence | binding signal
ATAAATTGCACCATCATCTCTCGCTTCTTGTCTTCGCAACCGGAGTCACCTAGTGCAG | 16200 fluorescence intensity (a.u.)
GCTTGATTTTCAGAGGGACCTTGCTCCCCTAAATTTCCTGCGGAGTCACCTAGTGCAG | 6480 fluorescence intensity (a.u.)
TTAAGTGAGGAGTGATTAATTGCAGTTGATATGGGGCACACGGAGTCACCTAGTGCAG | 13300 fluorescence intensity (a.u.)
AGGTAAGATTGGTTGCACTCAACCTCGTCGTGTGGCTGCACGGAGTCACCTAGTGCAG | 8530 fluorescence intensity (a.u.)
TTGTGATTTGTTAGAATTGTATTTTACAATGTGTAGTATGCGGAGTCACCTAGTGCAG | 39800 fluorescence intensity (a.u.)
CCCAAAACAAAATTATAGTTAAACTGTTAAAGTAAAGCAACGGAGTCACCTAGTGCAG | 7660 fluorescence intensity (a.u.)
TATGACTGGTTGATTCAACTTTCAAACAAAGCTTACAAAACGGAGTCACCTAGTGCAG | 6790 fluorescence intensity (a.u.)
AACCAATTCAAGTTAATATTGATTGGCTACACGCATATAGCGGAGTCACCTAGTGCAG | 47800 fluorescence intensity (a.u.)
GGGTAATCACGATCAATCCCCTCTCAGATCTATCGCCTTCCGGAGTCACCTAGTGCAG | 6210 fluorescence intensity (a.u.)
AAAGTTAAATCAATTTATCCAAGTGAAATGTTGGGAGAATCGGAGTCACCTAGTGCAG | 10300 fluorescence intensity (a.u.)
CCATCTAATTTTGTCCCATCCCATGCAGCGGTTGAACGGGCGGAGTCACCTAGTGCAG | 7690 fluorescence intensity (a.u.)
ATTGATTGGCTTATTTGGCTTATTTAACTTGATAAGGATTCGGAGTCACCTAGTGCAG | 51700 fluorescence intensity (a.u.)
ATGTGATTAATTAAAGTTTTAATTATTACAAACTTCAAAACGGAGTCACCTAGTGCAG | 27700 fluorescence intensity (a.u.)
AACGTGGAAGTGGATTGGGTGGTGGGTGGGGATCCACCTACGGAGTCACCTAGTGCAG | 6280 fluorescence intensity (a.u.)
TTATAGACGTAATGGATTACCACACAGGTCCTCAAGCCACCGGAGTCACCTAGTGCAG | 4190 fluorescence intensity (a.u.)
TATCCTTTGACTGTTTAATTTTGACTACAATTCCAAGTTGCGGAGTCACCTAGTGCAG | 10700 fluorescence intensity (a.u.)
AGCACCAATCAGAGTGTGATCCCAAGAAAGCAGAGGAGCACGGAGTCACCTAGTGCAG | 4510 fluorescence intensity (a.u.)
CATTGATAATGTATAAATAATTTTGGTTACAACATATTTACGGAGTCACCTAGTGCAG | 6880 fluorescence intensity (a.u.)
CCCACGCATTACATGATAAATTAGAGCTATGAAAATCAAGCGGAGTCACCTAGTGCAG | 3640 fluorescence intensity (a.u.)
GATTCAGATTGAATTCACATCACCAATAATAATAATAATACGGAGTCACCTAGTGCAG | 3260 fluorescence intensity (a.u.)
TACAAATTGGTTGAAAATGGAGGGTTCAAGCCAATGCATCCGGAGTCACCTAGTGCAG | 23600 fluorescence intensity (a.u.)
ATAATTAGCACTGACAGTAATTACATACTCAATTCAATCACGGAGTCACCTAGTGCAG | 30500 fluorescence intensity (a.u.)
GTTCTCAATACAAATTGCAATTTCATGACATATATATAAACGGAGTCACCTAGTGCAG | 4410 fluorescence intensity (a.u.)
TCATGCAATTTGTGCCAATCATAAAGGACGTACGTAGTACCGGAGTCACCTAGTGCAG | 25500 fluorescence intensity (a.u.)
GGCAAATTAACCAAGTTAGCTGCAGCTGCAGCTGGGATGGCGGAGTCACCTAGTGCAG | 9780 fluorescence intensity (a.u.)
GTCAAATTTGACATTGTGCAGTGGCTCGCCAAAGTAAACGCGGAGTCACCTAGTGCAG | 5010 fluorescence intensity (a.u.)
CCTGATGTGCTTGTAGGGCGGTGTTCTTGTGTGTGTGTGTCGGAGTCACCTAGTGCAG | 3490 fluorescence intensity (a.u.)
